Laboratory results taken from PubChem BioAssay AID1508642 (National Center for Advancing Translational Sciences (NCATS), 2021).
The campaign covered roughly 43,000 compounds. About 200 (0.47%) were called active. Another 12% or so got no clear call; they are omitted. Calls follow the shape of the dose curve; as a rule, active = well fitted cell-killing curve with a large enough effect; inconclusive = small, poorly fitted or top-dose-only effect, or effect the other way; inactive = flat fitted curve, though single readings scatter. This is one part of the list.

Test: Cell viability qHTS assay in S16 Pmp22-F2sN cells; also: nearly all actives have a fitted effect of over 65% in size
Conditions: S16 Pmp22-F2sN Schwann cells (luciferase reporters placed in the Pmp22 gene) viability, CellTiter-Glo, 24 h; series mostly up to 57.5 µM; activity change, negative = cytotoxicity: at the top concentration
Outline: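 Luminescence from CellTiter-Glo, read by CCD camera after a 15 min room-temperature incubation, served as the viability signal. Reporter Schwann cells (S16 Pmp22-F2sN) had been treated with pin-transferred compounds for 24 h at 37C.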
% is scaled to controls: 0 for no effect and ±100 for the full control effect.

Compound	activity change, negative = cytotoxicity
O=C(Cn1c2ncccc2c(=O)n1-c1ccccc1)NCc1ccccc1Cl	inactive: -0.611%
CCOc1ccc(-c2cn(-c3ccc(C)cc3)c(SCC(=O)Nc3ccc(C)cc3)n2)cc1	inactive: 5.83%
Cc1ccc(NC(=O)Cc2coc3ccc(C(C)C)cc23)c(C)c1	inactive: -23.3%
Cc1ccc(COc2ccc(-c3cc(C(F)(F)F)n4nc(C)cc4n3)cc2)cc1	inactive: -2.35%
Fc1ccc(-c2ccc(CNCCSc3nnnn3-c3ccccc3)o2)cc1	inactive: 4.61%
O=S(=O)(Nc1nc2ccccc2nc1Nc1ccccc1Br)c1ccccc1	inactive: 0.243%
O=C(CSc1nc2c([nH]c3ccccc32)c(=O)n1-c1cccc(Cl)c1)NCC1CCCO1 (centres undefined)	inactive: 12.7%
COc1ccc(NC(=O)CCn2c(=O)c3cccn3c3cccnc32)cc1Cl	inactive: 17.8%
O=C(Cn1c(=O)n(CCCS(=O)(=O)C2CCCCC2)c(=O)c2ccccc21)Nc1ccccc1C(F)(F)F	inactive: -3.68%
Cc1ccc(S(=O)(=O)c2[nH]c(-c3ccccc3)nc2SCC(N)=O)cc1	inactive: 1.05%
CC(C)C(=O)N1c2nc(-c3ccco3)nn2C2(CCCCC2)[C@@H]2CCCC[C@@H]21	inactive: -0.32%
Cc1oc2c(cc(NS(=O)(=O)c3ccc(C(C)C)cc3)c3ccccc32)c1C(=O)O	inactive: 1.96%
Cc1ccc(CCNc2ncnc3onc(-c4ccc(F)cc4)c23)cc1	inactive: -1.43%
COc1cccc(CNC(=O)Cn2c(=O)n3nc(-c4cccc(F)c4)nc3c3ccccc32)c1	inactive: 4.38%
CCOc1ccccc1NC(=O)C(CC)Sc1nc2ncccc2[nH]1 (centres undefined)	inactive: -5.64%
Cc1ccc2oc3c(c(=O)c2c1)C(c1ccccc1F)N(CCCN(C)C)C3=O (centres undefined)	inactive: 4.21%
COc1ccc(CNC(=O)C2=C(C)C(=O)OC23CCCCC3)cc1	inactive: -1.71%
COc1ccc(-n2ncc3c2ncn2nc(COc4ccc(Cl)cc4)nc32)cc1	inactive: -16.2%
CCCSc1nnc2c(n1)OC(c1ccc(Br)s1)Nc1ccccc1-2 (centres undefined)	inactive: 1.79%
COC(=O)c1sc2ncccc2c1-n1c(C)ccc1C	inactive: 2.79%
COc1ccccc1CNS(=O)(=O)c1ccc2c(c1)CC(=O)N2C	inactive: 2.33%
CCOC(=O)N1CCN(C(=O)c2c(C)nn(-c3cccc(C)c3)c2-n2cccc2)CC1	inactive: -5.94%
Cc1ccc(C)c(N2CCN(C(=O)CCS(=O)(=O)c3cc4c(cc3Cl)NC(=O)CO4)CC2)c1	inactive: -6.32%
CCC1CCCCN1CCCNC(=O)CN1C(=O)c2cccnc2Oc2ccc(C)cc21 (centres undefined)	inactive: 1.26%
O=C(Nc1ccc(Br)cc1F)C1CCN(c2nc3ccccc3[nH]2)CC1	inactive: 0.15%

Compound	activity change, negative = cytotoxicity
Clc1ccc2c(c1)-c1c(cnc3cc(-c4ccccc4)nn13)CO2	inactive: 20.6%
COc1ccc(N2CCN(C(=O)c3cnn(-c4ccc(F)cc4)c3-n3cccc3)CC2)cc1	inactive: 12.8%
COC(=O)COc1ccc2oc(-c3ccc(OC)cc3)cc(=O)c2c1	inactive: -2.45%
CC1CN(C(=O)N2CCC(C(=O)N3CCN(c4ccccc4)CC3)CC2)c2cc(Cl)ccc2O1 (centres undefined)	inactive: 0.328%
CCOc1ccc2nc(N3CCC(C(=O)Nc4ccccc4CC)CC3)sc2c1	inactive: -5%
CCOc1cc2[nH]c(=O)n(CCCCC(=O)N3CCN(c4ccc(OC)cc4)CC3)c(=O)c2cc1OCC	inactive: -1.22%
CCOc1ccc(C(=O)Nc2nnc(S(=O)(=O)Nc3ccccc3)s2)cc1	inactive: -21.1%
CCCN1CCN(C(=O)Cn2c(-c3cccs3)cc3ccccc32)CC1	inactive: 9.36%
COCCCNC(=O)C1CCN(C(=O)c2cnn(-c3ccccc3)c2-n2cccc2)CC1	inactive: 17.7%
Cc1ccc(NC(=O)c2cnc(N3CCCCC3)c3ccccc23)c(C)c1	inactive: -2.91%
CCCCOc1ccc(C2=NC(c3cccs3)=Nc3ccc(CC)cc3N2)cc1	inactive: -2.91%
CC(C)CC(=O)Nc1nc2nc(-c3ccccc3)cc(=O)n2[nH]1	inactive: 0.186%
COC(=O)c1c(Oc2ccc(OC)cc2)nnc(-c2ccccc2)c1-c1ccccc1	inactive: -9.95%
Cc1ccc2c(CC(=O)Nc3ccc(S(=O)(=O)N4CCCCC4C)cc3)coc2c1 (centres undefined)	inactive: -2.88%
Cc1ccc(CNC(=O)c2cccn2-c2nnc(N3CCCC3)s2)cc1	inactive: -0.166%
COc1cccc(NC(=O)CN2C(=O)CSc3ccc(S(=O)(=O)N4CCCC4)cc32)c1	inactive: -2.96%
Cc1ccc(N2C(=O)NC(NS(=O)(=O)c3ccccc3)(C(F)(F)F)C2=O)cc1C (centres undefined)	inactive: 17.2%
COc1ccc(CNC(=O)CCCn2nc(C)c3sc4ccccc4c3c2=O)cc1OC	inactive: 14.6%
CCOc1ccccc1CNC(=O)c1ccc(N2Cc3ccccc3Oc3ncccc32)s1	inactive: -26.5%
Cc1cccc(NC(=O)N2CCN(C(=O)c3nsc4ccccc34)CC2)c1C	inactive: -3.23%
Cc1ccc(NC(=O)CSc2ncc(S(=O)(=O)c3ccc(C(C)C)cc3)c(=O)[nH]2)cc1C	inactive: 19.1%
Cc1ccc(CNC(=O)c2nc(SCc3ccc(F)cc3)ncc2Cl)cc1	inactive: 13.6%
Cc1nn2c(=O)cc(COC(=O)c3cccc(NC(=O)COc4ccccc4Cl)c3)nc2s1	inactive: 12.3%
Cc1ccc(C(=O)c2cn(Cc3cccc(C)c3)c3nc(C)ccc3c2=O)cc1	inactive: -16.3%
COC(=O)c1cc(S(=O)(=O)N2CCN(c3ccc(OC)cc3)CC2)c[nH]1	inactive: -1.49%

Compound	activity change, negative = cytotoxicity
COc1ccc(S(=O)(=O)n2nc(C)c(S(=O)(=O)N3CCCCCC3)c2C)cc1	inactive: -8.85%
Cc1cc(C)n2c(Nc3ccc4c(c3)OCCO4)c(-c3ccc(Cl)cc3)nc2n1	inactive: -9.19%
COc1ccc(CNC(=O)CCC2N=C3c4ccccc4N=C(SCc4cccc(F)c4)N3C2=O)cc1 (centres undefined)	inactive: -20.6%
CC(=O)N1CCCc2cc(S(=O)(=O)NCc3cccc(C)c3)ccc21	inactive: -11.8%
CCn1c(=O)c2cc(C(=O)NCCCOC)sc2c2ccccc21	inactive: -20.8%
Cc1cc(C)n(-c2nc3ccccc3nc2Nc2ccc(Cl)cc2Cl)n1	inactive: -2.02%
O=c1c2cnn(-c3ccc(F)cc3)c2ncn1Cc1cccc(Cl)c1	inactive: 4.58%
CCCN(CCC)C(=O)Cn1nnc2sc(-c3ccccc3)cc2c1=O	inactive: 9.69%
O=C(CCCCn1c(=O)c2ccccc2n(Cc2ccccc2Cl)c1=O)NCc1ccc2c(c1)OCO2	inactive: 28.6%
CCNc1ccc(-c2nc(-c3ccccn3)no2)cc1[N+](=O)[O-]	inactive: -2.85%
Cc1cc(NC(=O)COCc2cc(-c3ccc(F)cc3)on2)ccc1Br	inactive: 1.48%
Cc1ccc(Nc2c(-c3ccc(Cl)cc3)nc3sccn23)c(C)c1	inactive: 28.2%
COc1cccc(N2CCN(C(=O)CCCn3c(=O)[nH]c4ccc(Br)cc4c3=O)CC2)c1	inactive: -14.3%
CCOc1ccc(CNC(=O)c2ccc3nc(CC)c(CC)nc3c2)cc1	inactive: 3.02%
Cc1ccc(C)c(NC(=O)N2CCC(CN3CCOCC3)CC2)c1	inactive: -0.984%
CCCn1c2ccccc2c2cnn(CC(=O)N3CCN(c4ccccc4F)CC3)c(=O)c21	inactive: 2.23%
CCOc1ccc(CCNS(=O)(=O)c2c(C)nc3scc(C)n3c2=O)cc1OCC	inactive: -0.132%
O=c1ccc2cc(S(=O)(=O)NCc3ccc(Br)cc3)ccc2[nH]1	inactive: 9.56%
Cc1ccc(NC(=O)CSc2nccn2Cc2ccco2)cc1Cl	inactive: -14.1%
CCC(=O)N1CCc2cc(S(=O)(=O)NC(CC(C)C)C(=O)NCCc3cccc(C)c3)ccc21 (centres undefined)	inactive: -16.3%
COc1cccc(NC(=O)CSCc2cc(=O)c3ccc(C)c(C)c3[nH]2)c1	inactive: 9.67%
Cn1c(=O)c2c(n3c4ccccc4nc13)NC(=O)CC2c1cccc(F)c1 (centres undefined)	inactive: 1.89%
Cc1cccc(-n2ncc(C(=O)N3CCc4ccccc4C3)c2C2CCN(C(=O)OC(C)(C)C)CC2)c1	inactive: -9.84%
CSc1ncc2c(n1)-c1ccccc1N(Cc1ccc(F)cc1)S2(=O)=O	inactive: -9.9%
COC(=O)c1nnn(CC(=O)Nc2cc(F)ccc2F)c1C(=O)OC	inactive: -9.36%

Compound	activity change, negative = cytotoxicity
O=C(NCCc1ccc(Cl)cc1)C(=O)NCC(c1ccco1)S(=O)(=O)c1cccs1 (centres undefined)	inactive: -11.2%
Cc1nn2c(=O)cc(COC(=O)c3cccc(NC(=O)COc4ccc(C)c(C)c4)c3)nc2s1	inactive: -15.4%
Cc1c(-c2nsc(NC(=O)c3cccs3)n2)nnn1-c1ccc(Cl)cc1	inactive: -3.72%
CCSc1ncc(Cl)c(C(=O)N(Cc2ccccc2Cl)C2CCS(=O)(=O)C2)n1 (centres undefined)	inactive: -18.8%
O=C(C1CCN(S(=O)(=O)c2cccs2)CC1)N1CCN(c2cccc(Cl)c2)CC1	inactive: 6.71%
CCOc1ccc(-c2cc3c(=O)n(CC(=O)NCc4ccc(OC)cc4)ccn3n2)cc1	inactive: -1.14%
CCS(=O)(=O)N1CCc2cc(C(=O)Nc3cccc(C)c3C)ccc21	inactive: 0.208%
CCCc1ccc(OC(=O)CSc2nnc(-c3cccs3)o2)cc1	inactive: 1.52%
CSc1ccc(CCNC(=O)CCn2c(=O)c3cccn3c3cccnc32)cc1	inactive: 21.5%
Cc1ccc(OCCSc2nc3ccc(NC(=O)c4ccc5c(c4)OCO5)cc3s2)cc1	inactive: -0.442%
O=C(Nc1ccc(F)cc1)C1CCN(c2nc3ccccc3n3cccc23)CC1	inactive: 3.99%
COc1ccc(NC(=O)c2cc3c(=O)n(C)c4ccccc4c3s2)cc1Cl	inactive: 3.85%
CCOC(=O)C1CCCN(C(=O)c2c(C)nn(-c3ccc(F)cc3)c2-n2cccc2)C1 (centres undefined)	inactive: 5.16%
Cc1nc(-n2nc(C)c(Cc3ccccc3Cl)c2C)sc1C(=O)N1CCC(C)CC1	inactive: 1.71%
O=C(CCn1cccn1)NCc1ccc(Cl)cc1	inactive: -11%
CCOC(=O)C(CC)Sc1ncnc2sc3c(c12)CCCC3 (centres undefined)	inactive: 1.92%
Cc1cccc(NC(=O)CSc2nnc(N)s2)c1	inactive: -1.32%
O=C(NC1(C(F)(F)F)NC(=O)N(CCc2ccccc2)C1=O)c1ccccc1Cl (centres undefined)	inactive: 7.42%
COc1ccccc1Cn1c(CNS(=O)(=O)c2ccc3c(c2)CCCC3)nc2cccnc21	inactive: -8.67%
COc1ccccc1N1CCN(C(=O)CSc2nc3ccccc3nc2Cc2ccc(F)cc2)CC1	inactive: -5.67%
Cc1csc2nc(COc3ccc(NC(=O)COc4ccccc4F)cc3)cc(=O)n12	inactive: 1.86%
Cn1c(CNC(=O)CSc2n[nH]c(-c3ccccc3)n2)nc2ccccc21	inactive: 3.88%
CCCCCOC(=O)CSc1nc2sc3c(c2c(=O)n1Cc1ccccc1)CC(C)(C)OC3	inactive: -0.412%
CC(C)(C)C1CCc2c(sc(NC(=O)Cn3nnc(-c4cccc(C(F)(F)F)c4)n3)c2C#N)C1 (centres undefined)	inactive: 1.05%
